Data: PubChem BioAssay AID1476 (National Center for Advancing Translational Sciences (NCATS), 2009)
Values joined by “and” are separate entries in the source; they are usually repeats but may differ in a detail not shown here. Identical values can stand only once. The campaign covered roughly 200,000 compounds. About 4,500 (2.2%) were called active. This list was built around the results that the source calls inconclusive (neither active nor inactive); the mix of calls is not that of the screen. Calls come from the whole dose curve; as a rule, active = well fitted inhibition curve with a large enough effect; inconclusive = small, poorly fitted or top-dose-only effect, or effect the other way; inactive = flat fitted curve, though single readings scatter. Potencies of inconclusive entries are doubtful fits and often do not repeat.

Target: Cruzipain (Trypanosoma cruzi) (UniProt P25779)
Sequence of UniProt P25779 (P25779 whole entry, looked up): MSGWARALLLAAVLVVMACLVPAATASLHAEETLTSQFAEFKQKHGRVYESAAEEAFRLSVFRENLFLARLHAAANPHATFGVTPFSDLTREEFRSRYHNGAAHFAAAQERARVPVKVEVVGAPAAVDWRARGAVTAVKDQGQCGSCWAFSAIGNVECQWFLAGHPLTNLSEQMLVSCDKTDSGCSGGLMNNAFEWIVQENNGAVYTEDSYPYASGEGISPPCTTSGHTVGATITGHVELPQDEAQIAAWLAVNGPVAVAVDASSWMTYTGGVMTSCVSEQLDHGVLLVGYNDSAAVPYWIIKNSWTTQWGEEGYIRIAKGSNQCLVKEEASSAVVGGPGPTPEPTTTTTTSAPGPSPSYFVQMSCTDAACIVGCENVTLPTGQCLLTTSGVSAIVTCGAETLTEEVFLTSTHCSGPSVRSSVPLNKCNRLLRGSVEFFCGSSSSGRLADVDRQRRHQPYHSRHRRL
Assay: qHTS Assay for Promiscuous and Specific Inhibitors of Cruzain (without detergent); note: nearly all actives have a fitted effect of over 40% in size;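 for max response, negative = inhibition: plate controls were enzyme without inhibitor for no effect and buffer without enzyme for full effect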
Conditions: purified cruzain, Z-FR-AMC fluorescence, no detergent
In short: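 Purified cruzain at 1.5 nM, pre-incubated 15 min with compound at room temperature in 100 mM sodium acetate pH 5.5, 5 mM DTT, 0.00005% Triton X-100. Reaction started with 2 uM Z-FR-AMC; AMC fluorescence increase over 60 s gives rate.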
Potency is the fitted concentration of half-maximal effect; tags give direction and shape of the fitted curve.

| Structure (SMILES) | Potency | max response, negative = inhibition |
| --- | --- | --- |
| CCCCCCC(=O)N(O)C1CC(=O)N(Cc2ccccc2)C1=O (centres undefined) | inconclusive: 31.6 µM [inhibitor, single point] | – |
| O=C(NC(NC(=S)Nc1cccc(Cl)c1)C(Cl)(Cl)Cl)OCc1ccccc1 (centres undefined) | inconclusive: 39.8 µM [inhibitor, single point] | – |
| COc1ccccc1NC(=O)COC(=O)c1ccccc1OCC(=O)Nc1ccc(SC(F)F)cc1 | inconclusive: 39.8 µM [inhibitor, single point] | – |
| COc1ccc(CNC(=O)c2cccn2-c2nnc(N3CCCC3)s2)c(OC)c1 | – | inactive: 7.37% |
| O=C(Nc1nc(-c2ccccc2)cs1)c1cccnc1 | – | inactive: -6.99% |
| O=C(COC(=O)C1(c2ccc(F)cc2)CCCC1)N1CCN(C(=O)c2ccco2)CC1 | inconclusive: 25.1 µM [activator, single point] | – |
| COc1ccc(N2CCN(S(=O)(=O)c3ccc(Cl)c(C(F)(F)F)c3)CC2)cc1 | active: 15.8 µM | – |
| O=C(CCn1c(=O)oc2ccccc21)Nc1nc2ccccc2s1 | – | inactive: 9.97% |
| C[C@H](N)Cc1c[nH]c2ccc(OCc3cccs3)cc12 | – | inactive: 2.2% |
| Nc1c(S(=O)(=O)O)cc(Nc2ccc(Nc3nc(Cl)nc(Nc4ccc(S(=O)(=O)O)cc4)n3)c(S(=O)(=O)O)c2)c2c1C(=O)c1ccccc1C2=O | inconclusive: 3.98 µM [activator, full curve] | – |
| CC(C)(C)OC(=O)N1CCCC(C(=O)CC#N)C1 (centres undefined) | inconclusive: 31.6 µM [activator, single point] | – |
| N#Cc1c(NC(=O)CSc2nnc(-c3ccncc3)n2CC2CCCO2)sc2c1CCCC2 (centres undefined) | inconclusive: 31.6 µM [activator, single point] | – |
| COc1ccccc1C(CCN(Cc1cccs1)C(C)=O)c1ccco1 (centres undefined) | inconclusive: 25.1 µM [activator, single point] | – |
| CCOc1ccc(-c2nnc(N(CC)C(=O)C3CCC3)s2)cc1 | inconclusive: 25.1 µM [activator, partial curve] | – |
| CCN1C(=O)/C(=C\c2nc3ccccc3c(=O)n2-c2ccccc2)c2ccccc21 | inconclusive: 39.8 µM [activator, single point] | – |
| Nc1nn(-c2ccccc2)nc1C(=O)OCc1c(F)cccc1Cl | – | inactive: 16.6% |
| COc1cc(Nc2nc(SCC(=O)c3ccc(Cl)c(Cl)c3)nc3ccccc23)cc(OC)c1 | active: 6.31 µM | – |
| CCCn1c(/C=C/c2ccccc2)nc2ccccc21 | inconclusive: 20 µM [inhibitor, partial curve] | – |
| CCOc1ccc(CC(=O)NCCS(=O)(=O)N2CCN(c3ccc(OC)cc3)CC2)cc1 | – | inactive: 5.87% |
| COc1ccc(N2CCN(C(=O)CSc3nc4ccccc4nc3Cc3ccc(Cl)cc3)CC2)cc1 | inconclusive: 39.8 µM [inhibitor, single point] | – |
| CCOc1ccc(OCc2ccc(C(=O)Nc3cccc(C)n3)o2)cc1 | inconclusive: 39.8 µM [inhibitor, single point] | – |
| COc1ccc(N2CCN(C(=O)c3cc(-c4ccc(C)c(F)c4)on3)CC2)cc1 | inconclusive: 7.94 µM [inhibitor, single point] | – |

| Structure (SMILES) | Potency | max response, negative = inhibition |
| --- | --- | --- |
| Cc1noc(NS(=O)(=O)c2ccc(NC(=O)CSc3nc4c(cc3C#N)CCCCC4)cc2)c1C | inconclusive: 39.8 µM [activator, single point] | – |
| CCn1c2c(c(=O)n3ncc(C(=O)Nc4ccc(C(=O)OC)cc4)c13)CN(Cc1ccc(OC)cc1)CC2 | inconclusive: 31.6 µM [activator, single point] | – |
| Cc1ccc(NC(=O)C(=O)NCC(c2cccnc2)N2CCN(C)CC2)cc1 (centres undefined) | inconclusive: 39.8 µM [activator, single point] | – |
| O=C(NCc1ccco1)c1ccc2c(=O)n(Cc3ccco3)c(SCC(=O)N3CCCC3)nc2c1 | inconclusive: 39.8 µM [activator, single point] | – |
| O=C1N/C(=C/c2cccn2-c2ccc(F)cc2)C(=O)N1Cc1ccccc1F | inconclusive: 31.6 µM [inhibitor, single point] | – |
| CCOc1ccccc1NC(=O)C1=C(C)Nc2ncnn2C1c1sccc1C (centres undefined) | – | inactive: 13.4% |
| c1ccc(CSc2nnc(-c3ccco3)c(-c3ccco3)n2)cc1 | active: 15.8 µM | – |
| CC(C)N(Cc1nc(-c2ccc(Cl)cc2)no1)C(=O)CN(C)S(=O)(=O)c1ccc(Cl)cc1 | inconclusive: 20 µM [activator, single point] | – |
| CC(NC(=O)COC(=O)C1CCN(S(=O)(=O)c2ccccc2C(F)(F)F)CC1)c1ccccc1 (centres undefined) | inconclusive: 39.8 µM [activator, single point] | – |
| C=CCC1CCCC(=O)N2CC[C@H](O)C12 (some centres undefined) | – | inactive: 1.81% and inactive: -0.948% |
| O=C1CN(C(=O)CSc2nc(-c3ccc(Cl)cc3)cs2)c2ccccc2N1 | inconclusive: 39.8 µM [inhibitor, single point] | – |
| C/C(=N\NC(=O)CNc1cccc2ccccc12)c1ccc(Br)s1 | inconclusive: 39.8 µM [inhibitor, single point] | – |
| CC(=O)OCC(=O)[C@@]1(OC(C)=O)[C@H](C)C[C@H]2[C@@H]3C[C@H](F)C4=CC(=O)C=C[C@@]4(C)[C@]3(F)[C@H](O)C[C@@]21C | inconclusive: 15.8 µM [activator, single point] | – |
| COc1ccc(-c2csc(NC(=O)C3CCCCN3S(=O)(=O)c3ccccc3)n2)cc1 (centres undefined) | inconclusive: 31.6 µM [inhibitor, single point] | – |
| Cc1ccc(Cl)cc1 | – | inactive: -1.3% |
| COc1ccc(NC(=S)NC(NC(=O)c2cccc(Cl)c2)C(Cl)(Cl)Cl)c([N+](=O)[O-])c1 (centres undefined) | inconclusive: 12.6 µM [inhibitor, partial curve, poor fit] | – |
| Cc1ccccc1NC(=O)COC(=O)/C=C/c1cccc(C(F)(F)F)c1 | active: 25.1 µM | – |
| Cc1cccc(CNc2ccnc(-c3ccoc3)n2)c1 | inconclusive: 31.6 µM [inhibitor, single point] | – |
| Cc1cc(C)cc(NC(=O)CSc2nnc(Cc3cccn3C)n2-c2ccc(F)cc2)c1 | inconclusive: 31.6 µM [activator, single point] | – |
| CCN1C(=O)/C(=C/N2CCc3ccccc32)SC1=S | inconclusive: 15.8 µM [inhibitor, single point] | – |
| COc1cc(-c2[o+]c3cc(O)cc(O)c3cc2O)cc(O)c1O | – | inactive: -6.7% |
| O=C(Nc1ccc(/C=C/c2nc3ccccc3o2)cc1)c1c(F)cccc1F | active: 10 µM | – |

| Structure (SMILES) | Potency | max response, negative = inhibition |
| --- | --- | --- |
| O=C1C(=O)c2ccccc2C(O)=C1C(CCc1ccccc1)C1=C(O)c2ccccc2C(=O)C1=O | – | inactive: 4.84% |
| COc1ccc(C=O)cc1COc1ccc(F)cc1F | inconclusive: 31.6 µM [inhibitor, single point] | – |
| C#CCOCCOCCOCCNc1nc(N2CCN(C(=O)Cn3cc(CCCN=C(N)N)nn3)CC2)nc(N2CCN(C(=O)[C@H](C(C)C)n3cc(CCO)nn3)CC2)n1 | – | inactive: 5.87% |
| Cc1ccc2oc(C(=O)Nc3nc(-c4ccc(F)cc4)ns3)c(C)c2c1 | – | inactive: 6.67% |
| Cc1c(CCC(=O)NCc2ccc(F)cc2)c(=O)oc2cc(O)ccc12 | inconclusive: 31.6 µM [inhibitor, single point] | – |
| CCCN(CCC)C(=O)c1c[nH]c2ccc(S(=O)(=O)N(C)c3ccc(OCC)cc3)cc2c1=O | – | inactive: 4.8% |
| COc1ccc(CCNC(=O)c2ccc3c(Cl)c4c(nc3c2)CCCC4)cc1OC | inconclusive: 39.8 µM [activator, single point] | – |
| COc1cccc(NC(c2nnc(-c3ccccc3)o2)c2ccc(F)cc2Cl)c1 (centres undefined) | – | inactive: -6.16% |
| CCC(C)OC(=O)C1=C(C)NC2=C(C(=O)C(C(=O)OC)C(C)C2)C1c1ccc(N(C)C)cc1 (centres undefined) | inconclusive: 31.6 µM [activator, single point] | – |
| O=[N+]([O-])c1ccc(/C=N/n2c(-c3cccnc3)n[nH]c2=S)cc1 | inconclusive: 31.6 µM [inhibitor, single point] | – |
| O=C(C(Cc1ccccc1)N1C(=O)c2ccccc2C1=O)N1c2ccccc2CCc2ccccc21 (centres undefined) | inconclusive: 39.8 µM [inhibitor, single point] | – |
| CCCC1=C(C(=O)OCC)C(c2ccc(N(C)C)cc2)n2ncnc2N1 (centres undefined) | – | inactive: -7.82% |
| O=C(COC(=O)c1ccc(Sc2ccccc2)c([N+](=O)[O-])c1)NC1CCCc2ccccc21 (centres undefined) | active: 12.6 µM | – |
| O=C(Nc1nnc(SCc2ccc(Cl)cc2)s1)C1CC(=O)N(Cc2ccccc2)C1 (centres undefined) | inconclusive: 25.1 µM [activator, single point] | – |
| CCOc1ccccc1N1CC(c2nc3ccccc3n2CCCOc2ccccc2)CC1=O (centres undefined) | inconclusive: 31.6 µM [activator, single point] | – |
| Cc1nc2c(c(SCC(=O)Nc3ccccc3C(F)(F)F)n1)CCC2 | – | inactive: -6.82% |
| Cc1cc(OC(C)C(=O)N2CCN(CCc3ccccn3)CC2)ccc1Cl (centres undefined) | – | inactive: -0.121% |
| CCN(CC)S(=O)(=O)c1ccc(/C(O)=C(\C#N)c2nc3ccccc3n2C)cc1 | inconclusive: 12.6 µM [activator, partial curve] | – |
| CCN(c1ccccc1)S(=O)(=O)c1ccc(NC(=S)NC(=O)c2ccc(Br)o2)cc1 | inconclusive: 31.6 µM [inhibitor, single point] | – |
| COc1cc(NC(=O)c2cccc(Cl)c2)c(OC)cc1NC(=O)CN1CCOCC1 | inconclusive: 31.6 µM [activator, single point] | – |
